# Laboratory results as given in PubChem BioAssay (Tox21).
# “And” between values parts separate entries of the source, which are not always exact repeats. Equal entries are not always repeated. Inconclusive results, whose numbers are uncertain, are shown with a selection of clear calls. Potencies beside an inconclusive call are fits to weak or partial responses and may not hold up. The source made the active and inactive calls. Unless noted, calls come from the whole dose curve; as a rule, active = well fitted curve in the direction sought with a large enough effect in the repeat runs; inconclusive = weak or mixed curves; inactive = no such curve, though single readings can be large; an effect the other way counts as inactive or inconclusive.
# Assays:
# [1] = qHTS assay to identify small molecule agonists of the constitutive androstane receptor (CAR) signaling pathway - cell viability counter screen (AID 1224836); note: nearly all actives have a fitted effect of over 45% in size
# In short: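 HepG2 cells stably carrying hCAR and a CYP2B6-2.2kb reporter were plated 4 h, then given compounds at 15 concentrations plus PK11195 (final 0.75 uM). After 23 h at 37 C, viability was read by CellTiter-Fluor fluorescence.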
# [2] = qHTS assay to identify small molecule antagonists of the constitutive androstane receptor (CAR) signaling pathway - cell viability counter screen (AID 1224837); note: nearly all actives have a fitted effect of over 45% in size
# In short: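 CITCO at 50 nM final was added alongside compounds (15 concentrations) to double-stable hCAR/CYP2B6-2.2kb HepG2 cells. Following 23 hr at 37 C, cell viability was quantified by CellTiter-Fluor fluorescence intensity.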
# [3] = target: Nuclear receptor subfamily 1 group I member 3 (Homo sapiens) (UniProt Q14994); assay: qHTS assay to identify small molecule agonists of the constitutive androstane receptor (CAR) signaling pathway (AID 1224839); note: nearly all actives have a fitted effect of over 15% in size
# UniProt Q14994, sequence (Q14994 whole entry, looked up): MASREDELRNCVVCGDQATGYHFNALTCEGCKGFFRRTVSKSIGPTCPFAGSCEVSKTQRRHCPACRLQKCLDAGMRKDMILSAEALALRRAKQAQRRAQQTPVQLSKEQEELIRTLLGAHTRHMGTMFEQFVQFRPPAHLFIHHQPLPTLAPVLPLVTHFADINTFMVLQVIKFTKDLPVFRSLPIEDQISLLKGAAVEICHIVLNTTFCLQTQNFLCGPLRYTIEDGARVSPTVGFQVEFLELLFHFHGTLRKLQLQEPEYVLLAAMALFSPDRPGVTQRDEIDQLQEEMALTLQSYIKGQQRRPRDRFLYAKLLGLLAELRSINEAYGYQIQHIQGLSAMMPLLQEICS
# In short: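 HepG2 cells stably expressing hCAR and a CYP2B6-2.2kb luciferase reporter were treated with compounds at 15 concentrations plus 0.75 uM PK11195 (final) for 24 h at 37 C; luminescence was read after ONE-Glo addition.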
# [4] = qHTS assay to identify small molecule antagonists of the estrogen related receptor signaling pathway with the pleiotropic PPARgamma coactivator (PGC) from Tox21 10K library - cell viability counter screen (AID 1224840; active = well fitted cell-killing curve with a large enough effect in the repeat runs, not every such curve was filed as active; inconclusive = weak or mixed curves, or effect the other way; inactive = no such curve, though single readings can be large or run the other way; note: nearly all actives have a fitted effect of over 40% in size)
# In short: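 Readout: fluorescence intensity from CellTiter-Fluor after 30 min at 37 C/5% CO2. Preceded by 17.5 h treatment of PGC/ERR cells with DMSO-dissolved compounds, added 6 h post-seeding.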
# [5] = qHTS assay to identify small molecule antagonists of the estrogen related receptor (ERR) signaling pathway from Tox21 library - cell viability counter screen (AID 1224834); note: nearly all actives have a fitted effect of over 30% in size
# In short: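 Counter screen run in ERR cells (2,000 cells/well): cells pre-incubated 6 h, then treated with compounds for 17.5 h at 37 C. Fluorescence was read 30 min after CellTiter-Fluor addition.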
# [6] = target: Luciferin 4-monooxygenase (Photinus pyralis) (UniProt P08659); assay: qHTS assay to identify small molecule inhibitors of firefly luciferase (AID 1224835); note: nearly all actives have a fitted effect of over 25% in size
# UniProt P08659, sequence (P08659 whole entry, looked up): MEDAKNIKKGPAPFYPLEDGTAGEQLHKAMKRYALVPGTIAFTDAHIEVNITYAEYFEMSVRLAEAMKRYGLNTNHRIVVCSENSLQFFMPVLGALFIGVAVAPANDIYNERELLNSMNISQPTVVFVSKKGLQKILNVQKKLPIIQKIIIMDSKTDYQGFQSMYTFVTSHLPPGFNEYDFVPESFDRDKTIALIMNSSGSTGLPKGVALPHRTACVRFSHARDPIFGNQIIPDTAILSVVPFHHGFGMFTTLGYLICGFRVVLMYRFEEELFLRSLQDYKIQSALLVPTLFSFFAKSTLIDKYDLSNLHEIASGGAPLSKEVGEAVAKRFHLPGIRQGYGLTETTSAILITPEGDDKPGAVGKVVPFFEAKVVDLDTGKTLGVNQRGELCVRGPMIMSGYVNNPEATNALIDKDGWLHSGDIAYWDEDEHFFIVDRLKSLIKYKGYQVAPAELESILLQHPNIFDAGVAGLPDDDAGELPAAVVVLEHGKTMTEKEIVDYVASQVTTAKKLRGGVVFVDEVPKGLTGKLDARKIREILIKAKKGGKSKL
# In short: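 Inhibition of purified Photinus luciferase is measured by luminescence. Substrate levels (D-luciferin, ATP) sit at their KM values. Each compound is tested in a concentration series.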
# [7] = target: Thyrotropin receptor (Homo sapiens) (UniProt P16473); assay: qHTS assay to identify small molecule agonists of the thyroid stimulating hormone receptor (TSHR) signaling pathway (AID 1224843; calls by dose curve; note: nearly all actives have a fitted effect of over 45% in size; for activation: % is set by controls: 0 for no effect and ±100 for the full control effect); settings: TSHR-HEK293 cells, cAMP HTRF, agonist mode, 30 min; activation: at 92.4 µM (top of the series) unless noted
# UniProt P16473, sequence (P16473 whole entry, looked up): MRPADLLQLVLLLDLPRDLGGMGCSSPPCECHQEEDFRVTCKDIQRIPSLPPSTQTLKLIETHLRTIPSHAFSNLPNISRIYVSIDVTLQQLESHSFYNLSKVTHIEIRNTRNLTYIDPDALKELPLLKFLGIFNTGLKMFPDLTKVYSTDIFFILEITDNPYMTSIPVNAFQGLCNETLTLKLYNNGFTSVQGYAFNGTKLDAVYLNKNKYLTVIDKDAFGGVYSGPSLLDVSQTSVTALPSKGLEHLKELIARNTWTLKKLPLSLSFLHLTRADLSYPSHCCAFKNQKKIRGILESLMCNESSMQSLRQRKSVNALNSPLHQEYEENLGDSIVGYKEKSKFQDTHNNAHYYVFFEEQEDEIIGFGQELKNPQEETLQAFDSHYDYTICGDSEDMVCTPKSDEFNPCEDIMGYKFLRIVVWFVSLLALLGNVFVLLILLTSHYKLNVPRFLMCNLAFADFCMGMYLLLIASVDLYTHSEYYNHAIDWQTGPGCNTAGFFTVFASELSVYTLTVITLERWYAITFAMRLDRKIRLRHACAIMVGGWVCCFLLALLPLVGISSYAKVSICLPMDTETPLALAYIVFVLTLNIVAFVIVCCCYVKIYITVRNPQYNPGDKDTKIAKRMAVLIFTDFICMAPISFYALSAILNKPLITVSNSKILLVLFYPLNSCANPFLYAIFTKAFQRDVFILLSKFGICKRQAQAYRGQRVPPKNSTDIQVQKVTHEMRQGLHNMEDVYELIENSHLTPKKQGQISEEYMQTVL
# In short: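 Agonist activity read as cAMP rise via d2/cryptate HTRF competition, 1 h room-temperature detection, in HEK293 cells expressing TSHR. Fifteen-point titrations, each run in triplicate, with a 30 min room-temperature incubation beforehand.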
# [8] = qHTS assay to identify small molecule agonists of the hypoxia (HIF-1) signaling pathway - cell viability counter screen (AID 1224844; calls by dose curve; note: nearly all actives have a fitted effect of over 50% in size)
# In short: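 In this counter screen, HRE-bla ME-180 cell viability after 17 hrs of compound exposure at 37C was read by CellTiter-Glo luminescence, multiplexed with the beta-lactamase reporter measurement.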
# [9] = target: Nuclear receptor subfamily 1 group I member 3 (Homo sapiens) (UniProt Q14994); assay: qHTS assay to identify small molecule antagonists of the constitutive androstane receptor (CAR) signaling pathway (AID 1224838); note: nearly all actives have a fitted effect of over 40% in size
# In short: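 Inhibition of CITCO-driven (50 nM final) CYP2B6 reporter expression is measured in HepG2 cells stably carrying hCAR. Fifteen compound concentrations are applied for 24 h at 37 C, followed by luciferase luminescence.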
# [10] = qHTS assay to identify small molecule antagonists of the estrogen related receptor signaling pathway with the pleiotropic PPARgamma coactivator (PGC) from Tox21 10K library (AID 1224841; call rule not given here; note: actives are mostly falling curves and most rising ones were filed inactive; nearly all actives have a fitted effect of over 50% in size)
# In short: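 One-Glo luminescence, measured after half an hour at room temperature, quantified reporter output of PGC/ERR cells. These had been plated at 2,000 per well, incubated 6 h, dosed with compounds in DMSO, then kept 18 h at 37 C.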
# Potency is the fitted concentration of half-maximal effect; tags give direction and shape of the fitted curve or compound fluorescence and quenching.
structure (smiles),measurement,setting,value
Nc1cc([N+](=O)[O-])ccc1O,Potency,[1],"inconclusive: 43.1 µM [cytotoxic, partial curve]"
same,Potency,[2],"active: 30.6 µM and inconclusive: 54.2 µM [cytotoxic, partial curve]"
same,Potency,[3],"inconclusive: 68.2 µM [activator, single point]"
same,Potency,[4],"inconclusive: 54.5 µM [cytotoxic, partial curve] and inconclusive: 21.6 µM [cytotoxic, full curve, poor fit]"
CCn1c2ccccc2c2cc(N)ccc21,Potency,[5],"inconclusive: 67.9 µM [cytotoxic, single point]"
same,Potency,[6],"inconclusive: 78.9 µM [inhibitor, single point] and inconclusive: 71 µM [inhibitor, partial curve] and inconclusive: 39.9 µM [inhibitor, partial curve]"
same,Potency,[7],"inconclusive: 68.6 µM [activator, single point]"
same,activation,[7],inconclusive: 1.4%
Cn1cnc2c1c(=O)[nH]c(=O)n2C,Potency,[5],"inconclusive: 37.6 µM [rising, single point]"
Nc1ccc(O)c(C(=O)O)c1,Potency,[5],"inconclusive: 54.5 µM [cytotoxic, partial curve]"
same,Potency,[6],"inconclusive: 88.6 µM [inhibitor, single point] and inconclusive: 22.4 µM [inhibitor, full curve] and inconclusive: 15.5 µM [inhibitor, full curve]"
same,Potency,[7],"inconclusive: 68.6 µM [falling, partial curve, poor fit]"
Cc1c(N(C)C)c(=O)n(-c2ccccc2)n1C,Potency,[6],"inconclusive: 72.2 µM [inhibitor, partial curve]"
same,Potency,[3],"inconclusive: 55.4 µM [activator, partial curve]"
same,Potency,[8],"inconclusive: 62.7 µM [cytotoxic, partial curve, poor fit]"
Cc1nc(-c2ccc3c(c2)CCN(CCC2CCC(NC(=O)/C=C/c4ccc(F)cc4)CC2)CC3)no1 (stereo unspecified),Potency,[5],"inconclusive: 19.4 µM [cytotoxic, partial curve]"
CC(C)(c1ccccc1)c1ccccc1,Potency,[6],inactive
same,Potency,[9],inactive
same,Potency,[8],"inconclusive: 40.6 µM [cytotoxic, partial curve]"
O=C(O[C@@H]1Cc2c(O)cc(O)cc2O[C@@H]1c1cc(O)c(O)c(O)c1)c1cc(O)c(O)c(O)c1,Potency,[1],"inconclusive: 54.6 µM [cytotoxic, partial curve] and inconclusive: 58.9 µM [cytotoxic, single point]"
same,Potency,[2],"inconclusive: 54.6 µM [cytotoxic, partial curve] and inconclusive: 52.5 µM [cytotoxic, partial curve]"
same,Potency,[9],"inconclusive: 24.4 µM [inhibitor, partial curve]"
same,Potency,[4],"inconclusive: 68.7 µM [cytotoxic, single point] and inconclusive: 46.8 µM [cytotoxic, partial curve, poor fit]"
same,Potency,[7],inconclusive: 27.4 µM
same,activation,[7],inconclusive: 19%
same,Potency,[8],"inconclusive: 1.1 µM [cytotoxic, single point]"
O=C1CN(/N=C/c2ccc([N+](=O)[O-])o2)C(=O)N1,Potency,[1],active: 27.2 µM and active: 21.7 µM and active: 13.3 µM
same,Potency,[2],active: 27.2 µM and active: 21.7 µM and active: 21.1 µM
same,Potency,[4],"active: 54.3 µM and inconclusive: 54.5 µM [cytotoxic, partial curve] and inconclusive: 33.5 µM [cytotoxic, partial curve, poor fit]"
same,Potency,[8],"inconclusive: 61.4 µM [rising, partial curve, poor fit]"
O=C(COc1ccc(Cl)cc1)N1CCN(Cc2ccc3c(c2)OCO3)CC1,Potency,[5],"inconclusive: 68.6 µM [cytotoxic, single point]"
same,Potency,[1],"inconclusive: 68.6 µM [cytotoxic, partial curve, poor fit]"
same,Potency,[3],"inconclusive: 68.6 µM [activator, single point]"
same,Potency,[10],inconclusive: 29.8 µM
CCC(C)(C)c1cc(O)c(C(C)(C)CC)cc1O,Potency,[5],"inconclusive: 68.6 µM [cytotoxic, single point]"
same,Potency,[1],"inconclusive: 68.6 µM [cytotoxic, partial curve, poor fit]"
same,Potency,[4],"inconclusive: 68.6 µM [cytotoxic, single point]"
same,Potency,[8],inconclusive: 54.9 µM [cytotoxic]
CCCCCCCCCCCCCOP(=O)(O)O,Potency,[6],inconclusive: 79.6 µM [inhibitor]
same,activation,[7],inconclusive: 29.1%
same,Potency,[8],inactive
